Measured values taken from PubChem BioAssay AID1159554 (Broad Institute, 2015).
Hit rate of the full screen: of about 94,000 compounds, about 2,100 (2.2%) were called active. The inconclusive results got no clear call from the source; some entries with a clear call stand among them for comparison. Cut-off read from the data, not from the text of the source: active = activity change below about -80%; inconclusive = no clear call, values can overlap the other calls; inactive = above that.

Assay: P. falciparum Dd2 growth inhibitors, primary screen, SYBR Green fluorescence, single dose replicates (AID 1159554)
Conditions: 72 h, at 10 µM, active compounds read low
For `CC(C)NC(=O)Nc1cccc2c1O[C@@H](CN(C)S(=O)(=O)c1cccs1)[C@@H](C)CN([C@H](C)CO)C2=O`, the activity change was inactive: 7.59%.
For `C[C@@H]1CCCCO[C@@H](CN(C)C(=O)NC2CCCCC2)[C@H](C)CN([C@@H](C)CO)C(=O)c2cc(NC(=O)Nc3cccc4ccccc34)ccc2O1`, the activity change was inactive: -31.2%.
With `CN1C[C@H]2[C@@H](c3ccccc31)[C@H](CO)N2C(=O)CN1CCOCC1` the activity change was inactive: -5.37%.
In the case of `C[C@H]1CN([C@@H](C)CO)C(=O)c2cc(NC(=O)C3CC3)ccc2O[C@@H]1CN(C)Cc1ccc(C(=O)O)cc1`, the activity change is reported as inactive: 1.52%.
In the case of `O=C(C[C@H]1C=C[C@H](NC(=O)Cc2ccccn2)[C@H](CO)O1)NCCc1ccccc1`, the activity change is reported as active: -92.4%.
For `C[C@H](CO)N1C[C@H](C)[C@@H](CN(C)C(=O)c2cccnc2)Oc2cc(C#CC3CC3)ccc2S1(=O)=O`, the activity change was inactive: -25.4%.
With `C[C@H]1CN([C@@H](C)CO)C(=O)Cc2cc(NC(=O)C3CCCCC3)ccc2O[C@H]1CN(C)Cc1ccc(C(=O)Nc2ccccc2N)cc1` the activity change was inconclusive: -80.7%.
In the case of `O=C(Nc1ccc(C(F)(F)F)cc1)N1[C@@H]2CNC[C@H]1C2c1ccc(/C=C/c2ccccc2)cc1` (stereo partly specified), the activity change is reported as inconclusive: -81.5%.
With `C[C@@H]1CN([C@@H](C)CO)C(=O)c2cc(NC(=O)Nc3ccc(F)cc3)ccc2O[C@@H](C)CCCCO[C@@H]1CN(C)C(=O)C1CCCCC1` the activity change was active: -85.3%.
For `C[C@H]1CN([C@@H](C)CO)C(=O)Cc2cc(NC(=O)Cc3cn(C)c4ccccc34)ccc2O[C@H]1CN(C)Cc1ccc(-c2ccccc2)cc1`, the activity change was inconclusive: -80.4%.
For `COc1ccc(NC(=O)N(C)C[C@@H]2Oc3cc(-c4ccc(C)cc4)ccc3S(=O)(=O)N([C@H](C)CO)C[C@H]2C)cc1`, the activity change was active: -89.2%.
With `CCCN(C)C[C@@H]1Oc2cc(C#Cc3ccncc3)ccc2S(=O)(=O)N([C@H](C)CO)C[C@@H]1C` the activity change was inconclusive: -86.3%.
For `C[C@@H]1CCCCO[C@H](CN(C)C(=O)Nc2ccc(F)cc2)[C@@H](C)CN([C@H](C)CO)C(=O)c2cc(NC(=O)NC3CCCCC3)ccc2O1`, the activity change was inactive: 17.2%.
With `CCS(=O)(=O)N[C@H]1C=C[C@H](CC(=O)NC2Cc3ccccc3C2)O[C@H]1CO` the activity change was inactive: 0.541%.
In the case of `O=C(c1cccc(F)c1)N1CC(=O)N2[C@H](CO)[C@H](c3ccc(-c4cccnc4)cc3)[C@H]2C1`, the activity change is reported as active: -85.8%.
With `COc1ccc(NC(=O)Nc2ccc3c(c2)C(=O)N([C@H](C)CO)C[C@H](C)[C@H](CN(C)S(=O)(=O)c2ccc(F)cc2)OCCCC[C@@H](C)O3)cc1` the activity change was inconclusive: -80.6%.
With `Cc1noc(C)c1S(=O)(=O)N(C)C[C@H]1OCCCC[C@@H](C)Oc2ccc(NC(=O)Nc3cccc4ccccc34)cc2C(=O)N([C@@H](C)CO)C[C@@H]1C` the activity change was inconclusive: -81.1%.
In the case of `C[C@@H]1CN([C@H](C)CO)C(=O)c2cc(NC(=O)Nc3ccc(C(F)(F)F)cc3)ccc2O[C@H]1CN(C)C(=O)Nc1ccc(F)cc1`, the activity change is reported as inconclusive: -80.7%.
For `O=C(C1CCCC1)N1CC[C@@H]2[C@@H](CO)Nc3ccc(Br)cc3[C@@H]21`, the activity change was inactive: -2.12%.
With `CCCNC(=O)C[C@H]1C[C@@H]2c3cc(NC(=O)NC4CCCCC4)ccc3O[C@@H]2[C@@H](CO)O1` the activity change was inactive: -2.89%.
With `COc1ccc(NC(=O)N(C)C[C@H]2Oc3ccc(NC(=O)Cc4cn(C)c5ccccc45)cc3C(=O)N([C@@H](C)CO)C[C@H]2C)cc1` the activity change was inactive: -34.3%.
For `COc1ccc2c3c([nH]c2c1)[C@H](CO)N(Cc1ccc(Cl)cc1)CC31CCN(Cc2ccccc2)CC1`, the activity change was inconclusive: -80.3%.
In the case of `C[C@H]1CN([C@@H](C)CO)C(=O)Cc2cc(NC(=O)Nc3ccc(C(F)(F)F)cc3)ccc2O[C@@H]1CN(C)C(=O)Nc1ccccc1`, the activity change is reported as inconclusive: -80.8%.
In the case of `C[C@@H]1CCCCO[C@H](CN(C)Cc2ccc(Cl)c(Cl)c2)[C@@H](C)CN([C@@H](C)CO)C(=O)c2cc(NC(=O)Nc3cccc4ccccc34)ccc2O1`, the activity change is reported as active: -90.5%.
In the case of `C[C@@H]1CCCCO[C@@H](CN(C)CC2CC2)[C@@H](C)CN([C@H](C)CO)C(=O)c2cc(NC(=O)Nc3ccc4c(c3)OCO4)ccc2O1`, the activity change is reported as inconclusive: -80.3%.
In the case of `COc1ccc(S(=O)(=O)N(C)C[C@@H]2OCCCC[C@H](C)Oc3ccc(NC(=O)NC4CCCCC4)cc3C(=O)N([C@@H](C)CO)C[C@H]2C)cc1`, the activity change is reported as inconclusive: -80.1%.
In the case of `COCC(=O)N1[C@H](C#N)[C@@H](c2ccccc2C2=CCCC2)[C@@H]1CO`, the activity change is reported as inconclusive: -80.3%.
For `COc1ccc(CN(C)C[C@H]2OCCCC[C@H](C)Oc3ccc(NC(=O)Nc4cccc5ccccc45)cc3C(=O)N([C@@H](C)CO)C[C@H]2C)cc1`, the activity change was inconclusive: -82.1%.
For `C[C@@H]1CCCCO[C@@H](CN(C)C(=O)Nc2ccc(C(F)(F)F)cc2)[C@H](C)CN([C@H](C)CO)C(=O)c2cc(NC(=O)C3CCCCC3)ccc2O1`, the activity change was inconclusive: -81.9%.
With `C[C@H](CO)N1C[C@H](C)[C@@H](CN(C)Cc2ccc3c(c2)OCO3)Oc2ccc(NS(=O)(=O)c3ccc(F)cc3)cc2CC1=O` the activity change was inconclusive: -80.3%.
With `C[C@@H]1CCCCO[C@@H](CN(C)Cc2ccc(Cl)c(Cl)c2)[C@H](C)CN([C@H](C)CO)C(=O)c2cc(NC(=O)NC3CCCCC3)ccc2O1` the activity change was inconclusive: -82.9%.
For `C[C@@H]1CN([C@H](C)CO)C(=O)c2cc(NC(=O)Nc3ccc(F)cc3)ccc2O[C@@H](C)CCCCO[C@@H]1CN(C)Cc1ccc2c(c1)OCO2`, the activity change was inconclusive: -80.9%.
For `COCC(=O)Nc1ccc2c(c1)OC[C@H](C)N(Cc1ccccc1F)C[C@@H](C)[C@@H](OC)CN(C)C2=O`, the activity change was inactive: -26.6%.
With `COc1cccc(-c2cn(CC[C@@H]3CC[C@@H](NS(=O)(=O)c4ccccc4Cl)[C@H](CO)O3)nn2)c1` the activity change was inconclusive: -83.9%.
For `Cc1ccc(S(=O)(=O)N(C)C[C@H]2Oc3ccc(NS(=O)(=O)c4c(C)noc4C)cc3CC(=O)N([C@@H](C)CO)C[C@@H]2C)cc1`, the activity change was inactive: -2.89%.
With `CN(C)CC(=O)N1C[C@@H]2N[C@H](C1)C2c1ccc(/C=C/c2ccccc2)cc1` (stereo partly specified) the activity change was inconclusive: -80%.
In the case of `COc1ccccc1S(=O)(=O)N(C)C[C@@H]1Oc2cc(/C=C/c3ccccc3)ccc2S(=O)(=O)N([C@@H](C)CO)C[C@H]1C`, the activity change is reported as inconclusive: -83.3%.
For `COCCNC(=O)C[C@H]1C[C@@H]2c3cc(NC(=O)CN(C)C)ccc3O[C@@H]2[C@@H](CO)O1`, the activity change was inactive: 20.4%.
With `C[C@@H]1CCCCO[C@H](CN(C)Cc2ccc3c(c2)OCO3)[C@@H](C)CN([C@@H](C)CO)C(=O)c2cc(NC(=O)c3ccccc3)ccc2O1` the activity change was inconclusive: -82%.
For `C[C@H](CO)N1C[C@H](C)[C@H](CN(C)C(=O)C2CC2)Oc2ncc(C#CC3CCCC3)cc2C1=O`, the activity change was inactive: 25.3%.
For `C[C@@H]1CCCCO[C@H](CN(C)C)[C@@H](C)CN([C@H](C)CO)C(=O)c2cc(NC(=O)CCCN(C)C)ccc2O1`, the activity change was inactive: 4.59%.
For `CCCN(C)C[C@@H]1OCc2cn(nn2)CCCC(=O)N([C@H](C)CO)C[C@@H]1C`, the activity change was inactive: 5.88%.
With `C[C@@H]1CCCCO[C@H](CN(C)CC2CCCCC2)[C@H](C)CN([C@H](C)CO)C(=O)c2cc(NC(=O)Nc3ccccc3)ccc2O1` the activity change was inconclusive: -81%.
With `C[C@H](CO)N1C[C@H](C)[C@H](CN(C)CC2CC2)Oc2ccc(NC(=O)Nc3ccc4c(c3)OCO4)cc2CC1=O` the activity change was inconclusive: -82.1%.
In the case of `O=C(Nc1cccc(F)c1)N1CC(=O)N2[C@H](C1)[C@@H](c1ccc(C#CC3CC3)cc1)[C@@H]2CO`, the activity change is reported as active: -82.1%.
In the case of `COc1ccc(S(=O)(=O)N(C)C[C@H]2OCCCC[C@H](C)Oc3ccc(NC(=O)Cc4ccccc4)cc3C(=O)N([C@@H](C)CO)C[C@H]2C)cc1`, the activity change is reported as inconclusive: -80.9%.
With `C[C@@H]1CN([C@H](C)CO)C(=O)c2ccccc2-c2ccccc2CO[C@@H]1CN(C)Cc1ccc(Cl)c(Cl)c1` the activity change was inconclusive: -81.5%.
In the case of `C[C@@H]1CN([C@H](C)CO)C(=O)c2cc(NC(=O)Nc3cccc4ccccc34)ccc2O[C@@H](C)CCCCO[C@@H]1CN(C)S(=O)(=O)c1cccs1`, the activity change is reported as active: -88.4%.
For `C[C@H](CO)N1C[C@H](C)[C@H](CN(C)C(=O)Nc2ccccc2F)Oc2cc(-c3ccccc3)ccc2S1(=O)=O`, the activity change was inconclusive: -81.1%.
In the case of `C[C@@H]1CN([C@H](C)CO)C(=O)c2cc(NC(=O)CCC(F)(F)F)ccc2O[C@@H](C)CCCCO[C@@H]1CN(C)C(=O)Cc1ccccc1`, the activity change is reported as inactive: -36.2%.
For `COc1ccc(NC(=O)N(C)C[C@@H]2OCCCC[C@@H](C)Oc3ccc(NC(=O)CCCN(C)C)cc3C(=O)N([C@@H](C)CO)C[C@H]2C)cc1`, the activity change was inactive: 16.5%.
With `OC[C@@H]1[C@H](c2ccc(C#CC3CCCC3)cc2)[C@H]2CN(CCC(F)(F)F)CCCCN12` the activity change was inconclusive: -81.5%.
For `COc1ccc2c3c([nH]c2c1)[C@H](CO)N(C(=O)Nc1c(C)noc1C)CC31CCN(CC2CC2)CC1`, the activity change was inconclusive: -82.6%.
In the case of `CN(C)CCCNC(=O)C[C@H]1C=C[C@@H](NC(=O)c2ccccc2F)[C@H](CO)O1`, the activity change is reported as inactive: 21.6%.
In the case of `COc1ccc2c3c(n(C)c2c1)[C@@H](CO)N(C(=O)Nc1ccccc1F)CC31CCN(C(=O)c2ccccc2)CC1`, the activity change is reported as inconclusive: -82.2%.
For `COc1ccc(CN(C)C[C@H]2OCCCC[C@H](C)Oc3ccc(NC(=O)Nc4ccc5c(c4)OCO5)cc3C(=O)N([C@@H](C)CO)C[C@H]2C)cc1`, the activity change was inconclusive: -80.4%.
